# Experimental data taken from patent US12551573B2, “Compositions and methods for the targeting of PCSK9” (Scribe Therapeutics Inc., priority 2022, dated 2026).
# B1: DOMAIN_7694: one of the nine most effective repressor domains (protein, listed as Columba livia)
# chain: QDVVTFKDVAIYFSPEEWVRLSAGQRELYQEVMLDNYELVTSLDRESKLLYKMDPEEESCEGVPYSSADSGAPDSSSTSAC
# B2: DOMAIN_10123: one of the nine most effective repressor domains (protein, listed as Rattus norvegicus)
# chain: ALVTFEDVAVRFTQEEWALLDPSQKILYRDVMRETYRNLTSVGINWECWDLEACFRSLGRNLRVQVVKRKCELTNSGPCAE
# B3: DOMAIN_15507: one of the nine most effective repressor domains (protein)
# chain: SKAPITFGDLAIYFSQEEWEWLSPIQKDLYEDVMLENYRNLVSLGLSFRRPNVITLLEKGKAPWMVEPARRRRGPDSGSKV
# modifications: Cebus imitator
# B4: DOMAIN_17905: one of the nine most effective repressor domains (protein)
# chain: EMGLLTFRDIAIEFSLEEWQCLDCAQRNLYRDVMLENYRNLVSLGIAVSKPDLITCLEQNKESQNIKRNKMVAKHPVMHSH
# modifications: Pan troglodytes
# B5: DOMAIN_20505: one of the nine most effective repressor domains (protein, listed as Chlorocebus sabaeus)
# chain: SQESVAFEDVAVYFTTKEWAIMVPAERALYRDVMLENYEAVAFVAVPPTSKPALVSHLEQGKESCFIRPPGVLSRSDWRAG
# B6: DOMAIN_16659 (protein, listed as Leptonychotes weddellii)
# chain: PQEPVTFEDVAVYFTQNQWASLDPTQRALYREVMLENYASVASLVVFPFPKPDLVSQLEREEAPWGPDPWEAEVLRGICPG
# B7: DOMAIN_16664 (protein, listed as Leptonychotes weddellii)
# chain: SQEPVTFEDVAVYFTQNQWASLDPMQRALYLEVMLENYANITSLAALPFPKPDLILQLEQGEAPWDLDPWTPLEGEALEGV
# B8: DOMAIN_16673 (protein, listed as Phascolarctos cinereus)
# chain: SLESVTFQDVAVNFTQEEWGHLEPAQKDLYREVMLENYQNFVSLGLPFSKPHVISQLERGEAPWITERDVPRVSCQDFFIQ
# B9: DOMAIN_26732 (protein)
# chain: CSKEPLCLQEPVSFADVAVYFSREEWALLDPAQRALYWDVMLETYECIASLGGEDPWIPDVHGLKDMAGDTCPGDGIADLK
# modifications: Meleagris gallopavo
# B10: DOMAIN_16677 (protein, listed as Pongo sp.)
# chain: AQESVMFSDVSVDFSQEEWECLNDDQRDLYRDVMLENYSNLVSMGHSVSKPNVISYLEQGKEPWLVDRELTRGQWPVLESR
# B11: DOMAIN_16696 (protein, listed as Tursiops truncatus)
# chain: HQEVVTFEDVAVYFTQTEWAGLSPAQRALYRSVMLEIYGNLTSLGYPVPKPALVSLLERGDLPWGLETRDDPPAQGTKDIC
# B12: DOMAIN_16703 (protein, listed as Phascolarctos cinereus)
# chain: CQETLTFKDVAVDFTREEWGHLGPAQRDLYKEVMLDNYRNLVSLGLQVSKPDVIFQLERGESPSMLEGKDSSDPCPEFLSQ
# B13: DOMAIN_16734 (protein, listed as Leptonychotes weddellii)
# chain: PQVLVSFEDVAVFLSREEWGCLGPAQRGLYSNVMLETYRNLISLGLQGSKPDVISRLEKGEEPWAPYSPKIEEGWIRSHRS
# B14: DOMAIN_16744 (protein, listed as Enhydra lutris)
# chain: QAEVTFEDVAVLFSREEWGRLGPAQRGLYRDVMLETYRNLVSLGAGPAGPKPGVITQLERGDEPWVLDAQGTEGKERLRVS
# B15: DOMAIN_16763 (protein, listed as Monodelphis domestica)
# chain: AQVLVTFQDVAVDFTQEEWRLLDLGQKELYKEVMLENVQNMLFLGLPVPREDWISHFDQGRAPWMLEGEGPSNSRLDGQRR
# B16: DOMAIN_27060 (protein, listed as Gopherus agassizii)
# chain: VTFEEVAVYFSEEEWALLDPGQRALYRDVMQENYETVISLGKDFCPLSPEQVALCGMLCGRSEGHVSQSPEQRETCKRQHK
# B17: DOMAIN_16771 (protein, listed as Saimiri boliviensis)
# chain: FQEPVTFEDVVVYFTQNEWTSLQPSQRALYREVMLENYATVTSLSAFPFSKPDLIFRLEQGEAAWGSDPWTLAGEEAPRGL
# B18: DOMAIN_16773 (protein, listed as Balaenoptera acutorostrata)
# chain: B11 chain with P72R
# B19: DOMAIN_16776 (protein, listed as Callorhinus ursinus)
# chain: ARASLSFEDVAVGFSWEEWQLLAPSQKDLYRDVMLENYRNLVSVGYEASKPDSVFQLEQGEPPWMVEGAAQSQTCQEEIWE
# B20: DOMAIN_16809 (protein)
# chain: KDQGSLTLEDVAVDFTWEEWQLLAPAQKDLYRDVMLENYSNLLSIGYQASKPDALSRLERGEPWPVEDEIHSQICPEMRKD
# modifications: Delphinapterus leucas
# B21: DOMAIN_16856 (protein, listed as Ursus maritimus)
# chain: B19 chain with E47Q, P51L, V54L, L57S, E61G, M65T, Q76P
# B22: DOMAIN_16865 (protein, listed as Papio anubis)
# chain: MVSFEDVAVLLSQEEWDCLIPAQRGLYRDVMLETYGNLVSLGLQASKPDVISRLEQGDEPWTPHILRTQRSWSWRHKRECY
# B23: DOMAIN_16876 (protein, listed as Callorhinus ursinus)
# chain: LQKSVTFEDVAVYFTQTEWDGLSPAQRALYRDVMLENYGNVASLGFSLFKPAVISQLEGAGELGGPSPLVDGTETGPQGLW
# B24: DOMAIN_27385 (protein, listed as Octodon degus)
# chain: LLTFEDVAVHFSEEEWQLLDPNQKTLYNEVMWDICEAASFVGLKFKNDTGNAEPSSVSALEIQAAERQGSKTRKNVARKRK
# B25: DOMAIN_16936 (protein, listed as Rhinopithecus roxellana)
# chain: LKDLVTFKDVAIDFSQEEWQWMNPAQKHLYRSMMLENYQSLVSLGLCISKPYVISLLEQGREPWEMTSEMTRSPFSDWESI
# B26: DOMAIN_16953 (protein, listed as Callorhinus ursinus)
# chain: SQSLVTFGDVAVDFSQEEWEWLNSAQRNLYRSVMLENYRNLVSLGLCVSKPDMISSLEQRKEPWMVKRKLTRGRCPDLKTV
# B27: DOMAIN_16973 (protein)
# chain: B11 chain with R69Q, D79H
# modifications: Delphinapterus leucas
# B28: DOMAIN_16994 (protein, listed as Odocoileus virginianus)
# chain: RPRAVKFGDVALYFSREEWGCLRPAQRALYRDVMQETYGHLGALGCAGPKPALISWLERNTDDWEPAALDPQECPKGVAVQ
# B29: DOMAIN_17001 (protein, listed as Rhinolophus ferrumequinum)
# chain: SEDLVTFRDVAVDFSQEEWEQLNSAQRGLYRDVMLENYRSLVSLGVSVSKPDVISLLEQGKEPWVVKEGTRGTYSDWKYAF
# B30: DOMAIN_17023 (protein, listed as Sapajus apella)
# chain: SQEPVTFADVAVVFTPEEWVFLDSTQRSLYRDVMLENYRNLASVAGDQLRKPNASSDLEQRGEQWNTERGVISDTCPEPQL
# B31: DOMAIN_17027 (protein, listed as Balaenoptera acutorostrata)
# chain: PQVLVSFEEVAVLLSQEEWGRLSPAQKGLYRDVMMETYGNLVSLGLQGSKPDVISKLEQGKEPWAPHSPRIEGSWIWRRRR
# B32: DOMAIN_27506 (protein, listed as Bos mutus)
# chain: QPQGTMTFKDVEVTFSQDEWGLLDASQRNLYRDVMLENYGNMASVVGPFTKPALISWLEAREPWGLNVQGVQFKGNPGAAP
# What was measured:
# B2M locus = assay: B2M repression (HLA-negative cells by flow cytometry) in HEK293T cells transfected with LTRP plasmids; type: cell-based, human; details: LTRP5 without ADD, scaffold 316 spacer 7.165, days 6/7 to 26/27, vs LTRP5-ZIM3
# Procedure: Each construct was tested in triplicate.
# Each construct was tested in triplicate. […] Cells were harvested for repression analysis at day 5, day 12, day 21, and day 51 post-transfection.
# Each construct was tested in triplicate. […] Cells were harvested for repression analysis at day 8, day 13, day 20, and day 27 post-transfection. […] In addition, cells were also harvested on day 5 post-transfection for gDNA extraction for bisulfite sequencing to assess off-target methylation at the non-targeted VEGFA locus, which was performed using similar methods as described in Example 13.
# HEK293T cells were transfected as described in Example 14, except that the cells were transfected with 50 ng each of a plasmid encoding the LTRP construct and a plasmid encoding the gRNA. […] 72 of the 95 top repressor domains were assessed together in one experiment where B2M expression was measured at 7, 14, 19, and 26 days after transfection, and the data shown in Tables 57-60.
# HBEGF locus = type: cell-based, human; details: high-throughput screen of dXR repression of the HBEGF gene
# [1] = change in abundance of each domain in the library before and after diphtheria toxin selection
# [2] = abundance of each domain in the library before and after diphtheria toxin selection, HEK293T cells
Molecule,B2M repression by LTRP5 constructs with enhanced repressor domains (B2M locus),Log2 (fold change) (HBEGF locus; [1]),Log2 (fold change) (HBEGF locus; [2])
B1,most effective repressor domains,3.7111,–
B2,most effective repressor domains,3.6356,–
B3,most effective repressor domains,3.8531,–
B4,most effective repressor domains,2.5038,–
B5,most effective repressor domains,3.4989,–
B6,–,–,3.8913
B7,–,–,3.4502
B8,–,–,3.0938
B9,–,2.7548,–
B10,–,–,3.1577
B11,–,–,3.0806
B12,–,–,3.3969
B13,–,–,3.4791
B14,–,–,3.637
B15,–,–,2.9244
B16,–,2.7943,–

Molecule,B2M repression by LTRP5 constructs with enhanced repressor domains (B2M locus),Log2 (fold change) (HBEGF locus; [1]),Log2 (fold change) (HBEGF locus; [2])
B17,–,–,3.3025
B18,–,–,4.5309
B19,–,–,3.0877
B20,–,–,2.4357
B21,–,–,2.7613
B22,–,–,3.9619
B23,–,–,3.2183
B24,–,4.1339,–
B25,–,–,2.9808
B26,–,–,3.3286
B27,–,–,3.0187
B28,–,–,3.0575
B29,–,–,3.045
B30,–,–,2.5472
B31,–,–,3.131
B32,–,3.8121,–

# Residue numbers refer to the chain shown, from its start. Where two headings read alike, the source gives them in different places.
